Laboratory results reported in the supplement of paper PMC11417369.
± gives the standard deviation of the averaged measurements. The list shows a part of the results.

The sequences below were run on PfAP2-EXP AP2 domain (GST-tagged) (assay: gcPBM binding intensity (ln(normalized median fluorescence intensity)); higher = stronger DNA binding).
Method in brief: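 Binding intensity is the highest Masliner-normalised natural-log median intensity over replicate spots in either probe orientation. To obtain it, GST-tagged P. falciparum DNA-binding domains made in E. coli were incubated for 1 h on an Agilent 4 × 180k array of primer-extended double-stranded 36-bp intergenic genomic probes plus negative controls. Detection used Alexa488 anti-GST antibody with scanning at 488 nm.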

| Sequence | gcPBM binding intensity (ln) |
| --- | --- |
| AATCTATCAAAGTGTACATGCAATAAAAAAAAAAAA [TGCATGCA_site103] | 9.01 ± 0.48 |
| AAAAAATTATTATGAACACACATTTATTATATTCAT [CACACA_site1566] | 8.03 ± 0.35 |
| AAACATTTTCATTTGACACACATCATATATTTATAT [CACACA_site1794] | 8.48 ± 0.61 |
| TTTTTTTTTCCCCCATGTACATAAATAAGTATATCT [XGTACX_site6965] | 9.19 ± 0.33 |
| GCGTGCGTGTACTTAACACACATAATATGTATTTAT [CACACA_site1247] | 8.4 ± 0.34 |
| TTAATGTACAGACACCCACACACAAACAAATATATA [CACACA_site8888] | 8.93 ± 0.65 |
| AAAAGAAAAAAAAGTACACACATGTATATTAAGCGT [CACACA_site5402] | 8.88 ± 0.42 |
| CTTTCATTTCTATCTACACACATATTTTTTCCAAGT [CACACA_site2972] | 8.88 ± 0.48 |
| AATTATATGAAATAAACACACATATGCAATATTGCA [CACACA_site6988] | 8.73 ± 0.37 |
| ATATGTACTATACGCACACACACTCACATATATATA [CACACA_site3239] | 9.12 ± 0.32 |
| AAAAATATATATATATATATATATATATTATTTTTT [TGCATGCA_negctrl_site378] | 8.59 ± 0.25 |
| TAACTTAATTTTAATGCACACAATTTATATATATAT [CACACA_site6022] | 9.9 ± 0.11 |
| TATATATATAAATACAGTACATATATAATATTTTGA [XGTACX_site637] | 8.6 ± 0.2 |
| ATTATATATATCAGGTGTACGTAAAAAAAATGGACG [XGTACX_site1028] | 9.26 ± 0.46 |
| TTTTTTTTTTTTTTTACACACTCCAATAAAAAAGAA [CACACA_site2119] | 8.3 ± 0.45 |
| TTTTTTTATTAATGTAGTACAATATAATGTTATATT [XGTACX_site2295] | 8.54 ± 0.29 |
| GAGGTCTTTTTTAATGTGCACATATATATATATATA | 10.3 ± 0.25 |
| TAATTTATAAATATAATATTTATGTATATGATGTTT [CACACA_negctrl_site464] | 8.17 ± 0.4 |
| TATAAAAATATATTTACACACTATAAATATCGAAAG [CACACA_site6896] | 8.49 ± 0.38 |
| TACAACTTAATATGTACACACAAATATATATATATA [CACACA_site5138] | 9.99 ± 0.23 |
| ATTCATCCAATAATGTGAATTATCATGATAAACTTA [TGCATGCA_negctrl_site406] | 8.26 ± 0.43 |
| TTTATAAATAAACACACACACATGTGAACATAAAAA [CACACA_site5110] | 8.82 ± 0.44 |
| GATACCTATAGACACACACACATACCTATATACATA [CACACA_site7586] | 8.79 ± 0.3 |

| Sequence | gcPBM binding intensity (ln) |
| --- | --- |
| GAAATACATTTTAAAAAATAAGTAATTATAAAATAA [TGCATGCA_negctrl_site303] | 8.21 ± 0.38 |
| ATTATTCTATATGAAACATGCATACATTTGTATTTT [TGCATGCA_site823] | 8.54 ± 0.29 |
| ATATATGTAAATGAATGTACATTATTTTATATATTA [XGTACX_site8460] | 8.39 ± 0.34 |
| ATCAAAATTGTCATTACACACCTTTATTTTTAGAAT [CACACA_site1813] | 8.56 ± 0.35 |
| TCCAATAATTTATAAAAAAAAAAAGGGAAAATGTAT [TGCATGCA_negctrl_site492] | 8.28 ± 0.26 |
| TTGGATTTTTCCTATGAACACACGGGGTTACAATTA [CACACA_site449] | 8.4 ± 0.45 |
| TTAATATGAGAATAATGTACAAGAAAATATTACATA [XGTACX_site6609] | 8.57 ± 0.47 |
| ATATATTTATTATTAACATGCAATCATTATATATAA [TGCATGCA_site404] | 8.47 ± 0.45 |
| AAAATAATAAAAAACTGTACGAATTAAAAATTAACA [XGTACX_site8454] | 8.64 ± 0.22 |
| CCTAATTTTATTAGGGTGCATTTTTAGTTAAATATA | 8.48 ± 0.27 |
| ACAATATATAAAATATGTACATAATATATATAATGA [XGTACX_site8731] | 8.52 ± 0.29 |
| ATCCACAAATTAACAAGTACATATATATATATATAT [XGTACX_site1267] | 10.2 ± 0.26 |
| TAAGTTATATGTACTACACACGTACACAAAATAAGA [CACACA_site9237] | 8.82 ± 0.3 |
| TGATGAAAATTTTTCTGTACAAAAAGTATGAAGGTA [XGTACX_site8901] | 8.88 ± 0.38 |
| ATTTATTTGTTTATTTGTTTATTTGTTTATTTGTTT [CACACA_negctrl_site1386] | 8.72 ± 0.38 |
| AATTTAATATAATGCACACATAAAAAAAAATTCAAA [CACACA_site2062] | 8.64 ± 0.071 |
| ATGAAAACCATGACGGGTACTCATTTATTATTTTAT [XGTACX_site6724] | 8.45 ± 0.46 |
| TTAAGAATCTATACTAGTACATATATGTATACAAGC [XGTACX_site8025] | 8.74 ± 0.35 |
| TATATATATATGTGTAGTACAACAAATATGAAAAAT [XGTACX_site4059] | 10.035 ± 0.007 |
| ATTGTGTTAATAAAATGTACATTTTCTCTACTTTAA [XGTACX_site1199] | 8.8 ± 0.35 |
| TGTAGAACAAAAAATTGTACATATTTGTAAAAAAAA [XGTACX_site3850] | 8.47 ± 0.35 |
| TATATATAGAAACACACACACATATATATATATATA [CACACA_site773] | 10.1 ± 0.43 |
| GTATATATATATAAAAGTACATGTTATGAAAAAAAA [XGTACX_site5410] | 8.85 ± 0.47 |

| Sequence | gcPBM binding intensity (ln) |
| --- | --- |
| TTTTTTCTCAAAAAAAAAACCTATGGTTATTAAGAT [XGTACX_negctrl_site534] | 8.18 ± 0.45 |
| ATTAAGTATATTTCTGCACACAAAAAAAAAAACCAA [CACACA_site9342] | 8.55 ± 0.41 |
| TTCTAAACACATTGACAAATTAATATATTACAGCAA [GTGCAC_negctrl_site121] | 8.56 ± 0.48 |
| TTATAATTCTATTATCTGTTCTTTTTATATTTTTTT [CACACA_negctrl_site855] | 8.53 ± 0.4 |
| TTATTTTTCAATGAAAAGGATTATATATATATATAT [CACACA_negctrl_site757] | 10.2 ± 0.13 |
| TATAAGAAAAATAACACACACATAAACATAAATACA [CACACA_site5536] | 9.06 ± 0.35 |
| AAAAAAAAAAAAAAATGTACATAAAAATGATATAAT [XGTACX_site4096] | 8.7 ± 0.55 |
| AAAATTTATAGTATGGTGCATAAAAATATATATATA | 9.86 ± 0.23 |
| GTAAATATAAACTCAGCACACAAACATATATATGTC [CACACA_site9326] | 8.79 ± 0.39 |
| TTAAATAAAAGGTTTAGTACTTAAAATAAGAAATGA [XGTACX_site6341] | 8.54 ± 0.38 |
| TTATATATATTTAAAAAAATAACATAAATAAATAAA [CACACA_negctrl_site347] | 8.32 ± 0.41 |
| TTTTATTTATCTTAATGTACACATTTATATATATAT [XGTACX_site8588] | 9.55 ± 0.11 |
| TATAATAATTAAAAGTGTACTAAATTTTTACATATA [XGTACX_site2523] | 8.2 ± 0.3 |
| CACTTTTTTTTTTACTGTACATATACAAATTAAAAA [XGTACX_site1565] | 8.67 ± 0.4 |
| TGGGTGTAGAACAATTGTACTTTGTAAAAATATAAG [XGTACX_site8464] | 8.81 ± 0.41 |
| TTTTTTTTCAATGGTTGTACAAAGTAAAACAACAAA [XGTACX_site1582] | 8.46 ± 0.26 |
| ATCCATCTTTTAATTTGTACTTATTCTTTTTTCTTT [XGTACX_site5299] | 9 ± 0.67 |
| ATTAGTTTTATATATAGTACATATAATTTTGAAGGT [XGTACX_site7445] | 9.36 ± 0.52 |
| ATATATATATGTAATAGTACATATGATAGTTTGTCA [XGTACX_site1545] | 9.495 ± 0.064 |
| TATTCATAATTTTAATGTACAAAATGGTTTGTAATA [XGTACX_site8493] | 8.15 ± 0.35 |
| TTGTAATTTATTCAAACACACAATTTGGACCTTTTT [CACACA_site1063] | 8.3 ± 0.44 |
| AAAGATAAATTAAAAAGTACATATTTATTCAATGTA [XGTACX_site8543] | 8.31 ± 0.2 |
| AATATATATATATTATCACACACTCACGTTTGACAA [CACACA_site8130] | 8.61 ± 0.4 |

| Sequence | gcPBM binding intensity (ln) |
| --- | --- |
| TATGATATATATAATACACACATATACATAAGATCT [CACACA_site1119] | 8.48 ± 0.45 |
| TAAAAAAAACGAACAAGTACACATAAAAAAAAATTA [XGTACX_site5982] | 8.68 ± 0.38 |
| ATTATATCATATATATGTACACATATATAACATGAT [XGTACX_site7] | 8.38 ± 0.38 |
| ACATAATTAACAAATACACACACACCCACCCACAAA [CACACA_site8069] | 9.18 ± 0.65 |
| TTCAATTTTTTATGAACACACAAAAAAAAAAAAAAA [CACACA_site2533] | 8.14 ± 0.57 |
| ATATATAAGGATGTCACACATAAATATTAACACTAA [CACACA_site5101] | 8.39 ± 0.4 |
| ATTTGTGATTTGTGTGTGCACGTATTTACAGAACAA [GTGCAC_site9498] | 9.2 ± 0.26 |
| AAGAAAAAATATATATATATATATATATATAATATG [TGCATGCA_negctrl_site417] | 8.75 ± 0.042 |
| TTATATTATTTTTATACATGCATTTCTATATATTTT [TGCATGCA_site164] | 9.2 ± 0.3 |
| TATATTAAATAAAAAGTGCATGTCTCATAAGATGGA [GTGCAC_site9520] | 8.68 ± 0.38 |
| ATAGGGAATTTATGCACACAGTTAAGGGGGAAAATT [CACACA_site5183] | 9.43 ± 0.37 |
| TATAAATAAAGCAGTACACACATTTATTTTAGATAC [CACACA_site7566] | 8.65 ± 0.28 |
| ATAAAATGTTAAGGGTGTACTTTACACATCTCCTAT [XGTACX_site4699] | 8.34 ± 0.32 |
| TTTATACTATAATTATGTACTTATAAAAGGAATAAA [XGTACX_site8027] | 8.48 ± 0.39 |
| TATATAAATATACATTGTACTCAACATTTTCATTAA [XGTACX_site3690] | 8.47 ± 0.38 |
| ATGTAAATACATATATGTACACAAATATATATATAT [XGTACX_site3537] | 9.8 ± 0.35 |
| ATAAACACATCTATATGTACATATATATATATATAC [XGTACX_site347] | 8.79 ± 0.29 |
| TGTATTAATAAAAATACACACATCATATTATAGAAA [CACACA_site7629] | 8.4 ± 0.33 |
| ATATATATATAAATATGTACATATATATATTATATA [XGTACX_site120] | 9.35 ± 0.042 |
| TATAAGATTATACAAAGTACATATAAATAATATATT [XGTACX_site1917] | 8.24 ± 0.33 |
